Source: the BET-seq Pho4 binding data (Le et al. 2018)
This is one part of the list. These are noisy estimates, calculated here from bound and input reads.

target: T1, Pho4 (S. cerevisiae) (UniProt P07270); experiment: relative binding free energy (BET-seq); higher = weaker binding; settings: reference: library average
T1 sequence: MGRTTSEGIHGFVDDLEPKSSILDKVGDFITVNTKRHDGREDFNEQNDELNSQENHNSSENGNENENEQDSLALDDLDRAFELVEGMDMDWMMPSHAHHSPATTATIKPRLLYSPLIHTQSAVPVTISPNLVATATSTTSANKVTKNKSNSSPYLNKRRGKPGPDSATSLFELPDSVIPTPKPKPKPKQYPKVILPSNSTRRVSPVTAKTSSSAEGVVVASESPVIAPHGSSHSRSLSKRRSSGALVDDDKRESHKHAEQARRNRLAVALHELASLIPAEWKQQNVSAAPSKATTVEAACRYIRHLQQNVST

Sequence	relative binding free energy [kcal/mol]
TTAGACACGTGTTGGA	0.07
AGGTTCACGTGTGGAC	0.37
AATTTCACGTGGTTAG	0.21
GTAGCCACGTGTTATG	0.07
ATGGGCACGTGCGAGA	-0.19
AGGAGCACGTGGTAGC	-0.02
GTTTTCACGTGTCATG	0.21
ATTGGCACGTGGTCAT	-0.22
GTGTCCACGTGGGCTG	-0.15
GGGTCCACGTGGGTAG	-0.17
TATGTCACGTGGGGGG	0.02
GAGCTCACGTGTAAGG	0.43
TATAGCACGTGTGTTA	-0.15
GGAGGCACGTGTGTCG	-0.07
ATGGACACGTGGGAGA	-0.09
GGCGGCACGTGAAGTG	0.29
TGTCACACGTGATATG	0.26
TTGTTCACGTGACGTT	0.36
CTGGTCACGTGTGTGA	0.09
ACAAGCACGTGGTGTT	-0.27
AGTTGCACGTGTAGGA	-0.07
CGGTTCACGTGTAGTA	0.39
TCTTGCACGTGTGGCG	0.02
CATATCACGTGGGGGA	0
ATAGGCACGTGAGATA	0

Sequence	relative binding free energy [kcal/mol]
TGAGGCACGTGTGGCG	0.05
TTAAACACGTGTTTTA	-0.1
GTTGGCACGTGATAGG	0
ATAATCACGTGATATT	0.21
TTGGGCACGTGAGTTA	0.14
CTGGACACGTGAGGGC	0.24
TGTAACACGTGCGGTT	-0.08
ATCGTCACGTGGGCGG	0.02
TAAATCACGTGTCTTT	0.21
TTTAGCACGTGGGTCG	-0.13
TCGGGCACGTGGGGCT	-0.29
AGCAGCACGTGTGGTT	-0.14
AGATTCACGTGTGGGT	0.38
TTAATCACGTGTGGTA	0.12
ATTTGCACGTGAGACT	0.11
AGTTTCACGTGTGCTT	0.37
CGGTGCACGTGGGAAG	-0.03
GAATTCACGTGTTTAT	0.33
GAAGGCACGTGGGAGA	-0.09
TAGCGCACGTGGTGGG	-0.14
GATGCCACGTGTGTAT	0.09
GTGAGCACGTGTGGCG	-0.07
ATCTGCACGTGAATGG	0.33
TGTTTCACGTGAGTAG	0.49
GGTGACACGTGTTGAT	0.1

Sequence	relative binding free energy [kcal/mol]
TGGCTCACGTGTGAGT	0.3
AGGGTCACGTGGGCCT	-0.01
TGACGCACGTGGACGT	0
TATAACACGTGGGTGC	-0.06
TTGTGCACGTGGCAAT	-0.16
CGTGTCACGTGAGGGG	0.21
TTTTTCACGTGGATTA	0.31
GAGGTCACGTGTTCGT	0.18
TGAGTCACGTGCAGGT	0.11
GATTTCACGTGGGGGG	0.24
CGGTTCACGTGGTGTT	0.22
GGTTTCACGTGGTTGA	0.28
CGGTGCACGTGCGAGG	-0.09
GAGCGCACGTGAGGGG	0.01
TAGTACACGTGGATTG	-0.01
TGCATCACGTGGAGTT	0.23
TTCCTCACGTGGTGGT	0.12
AAAGTCACGTGTGCGA	0.2
ACGAGCACGTGGGTGT	-0.24
TTATGCACGTGTTAGG	-0.11
CTGTCCACGTGTTTTT	0.2
TTTGGCACGTGAATAT	0.23
GGTTGCACGTGCCGTA	0.08
AGACGCACGTGATGTT	0.16
CTTTGCACGTGATAGG	-0.06

Sequence	relative binding free energy [kcal/mol]
GGCTTCACGTGACGGG	0.42
TTCGGCACGTGTTGAT	0.07
TGTGGCACGTGACCGT	-0.15
TTTGGCACGTGGGCAC	-0.15
TTAGACACGTGGTTCG	0
TTGTTCACGTGTGCTA	0.29
CTAGGCACGTGAGTGT	0.11
TGTTACACGTGGTGAC	0.11
TCGGTCACGTGATGAT	0.31
AGGGTCACGTGTTTTG	0.05
AATAGCACGTGTTGCG	-0.16
GGTGTCACGTGGGGGC	0.03
TAGTACACGTGTAAGG	0.17
CTTTGCACGTGGAGAG	-0.05
GTATACACGTGTACGG	0.15
TTTGTCACGTGTATGT	0.04
ACCGTCACGTGGGGGA	0.07
GTAGTCACGTGATGGC	0.18
GGACTCACGTGTGAGG	0.16
GATTACACGTGTTAAT	0.17
TACTGCACGTGGTGGG	-0.04
TTGTTCACGTGTAACT	0.35
CACGTCACGTGGGGGA	-0.05
GTGTGCACGTGATAGT	0.24
TGGAGCACGTGTGTAA	-0.01

Sequence	relative binding free energy [kcal/mol]
GGGGCCACGTGTTGCG	-0.06
CGGGCCACGTGGGTAA	-0.17
GAAATCACGTGTTATT	0.17
TAGTCCACGTGTATTT	0.2
ATTTACACGTGTAGGG	0.24
TAACTCACGTGTTAGG	0.21
GGTGCCACGTGAGTGG	0.15
TTTGTCACGTGTTCTT	0.11
CGAGTCACGTGGGGGC	-0.05
GAGATCACGTGTTGGA	0.25
GATGACACGTGAATGT	0.27
TTATACACGTGCGGGT	0.01
TGAATCACGTGAGGTC	0.35
TAGGTCACGTGAGTTC	0.25
CTAGGCACGTGCTGTG	-0.23
GCTTACACGTGTTTTG	0.18
GTGGACACGTGACGGG	0.2
GTTTCCACGTGGGTTG	-0.01
GTTCGCACGTGTAGTT	0.12
ACGTGCACGTGGAAGG	0
GGGTCCACGTGGGGAT	-0.21
GGTTTCACGTGAGGTA	0.39
TATTTCACGTGCGATT	0.34
TTTATCACGTGTAAGT	0.22
TTATACACGTGATGTG	0.08

Sequence	relative binding free energy [kcal/mol]
TATCGCACGTGGGGTG	-0.1
CAGGGCACGTGGGTTG	-0.23
TAAGTCACGTGAGCTG	0.21
ACGGTCACGTGGGGAA	-0.07
GTAGTCACGTGCGGGA	-0.01
CTTTACACGTGGTGTT	-0.02
ATGCGCACGTGTGAGA	-0.03
GGGGTCACGTGGACGT	0.18
TGGGTCACGTGTCTAT	0
TTTGGCACGTGTTATT	-0.11
AGTTGCACGTGATTAA	0.15
TGTAGCACGTGAGTCG	0.12
TTGTGCACGTGCGGCT	-0.05
TTCGACACGTGGGCTG	-0.15
CTCTACACGTGTTGGT	0.15
GGGCGCACGTGGCGGT	-0.12
TCTAGCACGTGTATGG	-0.07
GTGGTCACGTGCGTGG	0.13
TTGATCACGTGATATG	0.4
AGGGGCACGTGATACG	-0.09
GTTGACACGTGAGCTT	0.19
